167 variants from the RNAGym collection of RNA variant scans (doi:10.7554/elife.90254) can be followed below.

Read counts are not given, so values of variants with three or more changes are uncertain.

First the molecules themselves.
B1: LINE1-mini (parent)
chain: GGCAGAGCUCAACACAGCGUGGCAAAGUGGCUGUGGCUAGACUGCC

In the series the parent is B1. Briefly: self-cleavage, relative activity (ratio to wild type); higher = more cleavage; in vitro, sequencing; the parent is a self-cleaving ribozyme.
With C8A G21U G30A C45U, the self-cleavage turned out to be 0.47. Take C8G C15A C23A G44C: the self-cleavage stood at 0.02. The value for C8A A24G U34G was 0.26; that for C8G C10U A24U A26U G30U C42A U43C was 0.02; that for C8A A26G U28G was 0.1. Under C8G U9A A12U G17C stands 0.14; under C8G G19U U32G, 0; under C8A C13G G35A, 0.68.

With C8A G17C G19A G27C C45U, the self-cleavage stood at 0.06. Under C8A C15U U20C G21C A24G stands 0.31; under C8G A39C G40C, 0.05; under C8G A16U G22A G29A A39C, 0.03. Under C8G A12U A39G stands 0.13.

Regarding C8G U9A C18G G21A, the self-cleavage worked out at 0.12. The value for C8G C10U C31U was 0.03. The value for C8A U38A C45G was 0.38; that for C8A A16U C37G A39G was 0.08. The value for C8G C15U A25G C45U was 0.15. Regarding C8A C23U A26U G33A G40U, the self-cleavage turned out to be 0.17. Regarding C8G G22A G27U C46U, the self-cleavage was 0. The value for C8A C10G G17C A41G was 0; that for C8A A24U G27A was 0.29; that for C8G C13U C23U U34A G40U was 0.02.

For C8G A11G U20C, the self-cleavage came to 0.02. Regarding C8U A11U A14U C15A G36A, the self-cleavage turned out to be 0.03. With C8A C10G G35C, the self-cleavage is 0.02. The value for C8G G30U C31U C37U was 0.11; that for C8A G22C A39U was 0.03. On to C8G G40C C45U, for which the self-cleavage turned out to be 0.02. As for C8A A26C C31U, the self-cleavage is 0.19. The value for C8G G35A A41C was 0.01; that for C8A G17U C18A C37A G40A was 0.08. Under C8G U9G C31U U32G stands 0.02; under C8G C15A A26U G27A U28G G33C, 0.03; under C8G A12C C23G A25U G27A G29A, 0.02. The value for C8A C23U G35U G44C was 0.17; that for C8A G19U G35U was 0.17; that for C8G G21A U34A was 0.03. C8A C13U A14G U20G U28A C42A: the self-cleavage worked out at 0.13. Under C8G C10A G19C G29U C31U stands 0.01; under C8G A25U C31U, 0.06; under C8A U9G C23G A26G G30C, 0.05. The value for C8G A24C U28A was 0.02; that for C8G C15G A16G G21C G36A C42U was 0; that for C8G A14C A25C C31A G40A was 0.01.

As to C8A U34G C42A, the self-cleavage is 0.3. The value for C8G C13G G21A was 0.04; that for C8G U20A C23U G36U was 0.09. Under C8A U28A G36A stands 0.14; under C8A G21A G30U U32C A39G C46A, 0.52. Under C8G C13U U28C G33A C46G stands 0.01.

As to C8U A11U G30C G35A C46G, the self-cleavage was 0.01. C8G C10A C15A C31G U38C U43G: the self-cleavage is 0. Under C8G A12U C18U C31U stands 0.05; under C8A A25G C45G, 0.57; under C8A U9A A11C, 0.02. The value for C8A G17C A24U U34G was 0.08. C8G U9A A25C: the self-cleavage came to 0.08. Under C8G G22U A26G stands 0.08; under C8G A16U G19C A24C, 0.06. Under C8G C18G G40A U43C stands 0.01. Under C8G C13U G29A stands 0.12; under C8G G21C G33U, 0.07. As for C8G C42G U43A, the self-cleavage is 0.02. Regarding C8G A12U C23A C42G, the self-cleavage worked out at 0.05. Under C8G C15U G33U G35A G40U stands 0.17; under C8A G17U U20G, 0.25; under C8G C23U A26U, 0.07. The value for C8G C42U G44U was 0.28. Consider C8A G21C C23A G29U U34A, for which the self-cleavage worked out at 0.49. Under C8G U9A U20A G27C stands 0; under C8A G36U U38C, 0.25.

As for C8A C13A C18G G29U G30C C46U, the self-cleavage is 0.34. Under C8A U9C A12C G44C stands 0.06. Under C8G A14C G17A U34G G36C stands 0.04; under C8G G33U C37A, 0.07. Under C8G G35U G44U C46G stands 0.01; under C8A C18A A24G, 0.11; under C8G U9A C13U A14C U20A, 0.02.

For C8A C18A C42G, the self-cleavage amounted to 0.14. Consider C8G A12U C23G G40C C46A, for which the self-cleavage worked out at 0.02. For the variant C8A C23U A39U, the self-cleavage turned out to be 0.12.

With C8A C13A C18A G29C, the self-cleavage came out at 0.09.

Turning to C8A G30A G40A, the self-cleavage amounted to 1.19. The value for C8A C15U A16U G19A was 0.73; that for C8G C23A G29U U34A was 0.07; that for C8G G22C G30A U38C was 0. As for C8G A25C G27C, the self-cleavage was determined as 0.03. Under C8G C42U C45G stands 0.01; under C8A G17U G36C A39U C42G, 0.14. Take C8G G17C C18U U32A G44C: the self-cleavage amounted to 0.08. For C8G A14C G19U, the self-cleavage is 0.02. The value for C8G A12C C13A U32C A39U was 0.01; that for C8A G35U U38A was 0.1; that for C8G A14C C23A A26C C42A was 0.06. Under C8A G21U A24G G36U A41C C45U stands 0.03; under C8A G27U G30U A39C, 0.27. Under C8U A11C G21A stands 0.02. On to C8G A14G G35U G44U, for which the self-cleavage is 0.02. Regarding C8G G22C C23U G30U, the self-cleavage was 0.07. With C8A G22A A26U U28G U43G, the self-cleavage worked out at 0.61. The value for C8U A11U A12C C15A was 0. Under C8A G19U G33U G36U U38A stands 0.17. The value for C8A C15U U38C was 0.06; that for C8G G21U G30C C37A was 0.07; that for C8G A12G C37A G40C was 0.01. Consider C8G G17C G27C C37U, for which the self-cleavage stood at 0.01.

For the variant C8G U9C G36C, the self-cleavage was 0.04. Consider C8G G36C U43G, for which the self-cleavage is 0.

In the case of C8G G17C C18A, the self-cleavage was determined as 0.02. The value for C8G C10U A26C G29C was 0.01; that for C8A C31A G35U C37G was 0.11; that for C8G C13G G36U was 0.03.

Turning to C8A C15A A26G G35A G44U C46G, the self-cleavage is 0.04. For C8A C10A A39U, the self-cleavage is 0.

In the case of C8G C23A G27C, the self-cleavage came out at 0.06. Under C8A C10G A11U A12C C13U G36U stands 0.04. Under C8G C15A G35C C45A stands 0.01. For C8A G17U G21A G22U, the self-cleavage was found to be 0.17. The value for C8A C15U U34A G40U A41U was 0.02. Turning to C8G A14C A26C G30C C31G, the self-cleavage came to 0.03.

For the variant C8G U9A A26U, the self-cleavage was found to be 0.12. The value for C8G C10U G35C was 0.05.

In the case of C8G G27U A39U, the self-cleavage is 0.02. The value for C8G G27U U28G G40U was 0.04; that for C8A U9G A11G was 0. Take C8G G19A G29U A39U: the self-cleavage came out at 0.06.

Turning to C8G C15A C23A A25C A26G, the self-cleavage was determined as 0.08. On to C8G G36U U38C C42U, for which the self-cleavage was 0.04. The value for C8A C37G G40C was 0.04; that for C8A C15U G22A G35C U43G was 0.47; that for C8G G27U G30U U32G was 0.02. As to C8A G22C U43A, the self-cleavage was determined as 0.45. For the variant C8G G33A C46U, the self-cleavage stood at 0.06. The value for C8G C13U C15U G22A U32G was 0.01; that for C8U A11C C37A was 0.01; that for C8A C13A A26U U32C G33U was 0.03. Under C8G G27A C42U C45U stands 0.04; under C8G C13G U32C A41U C46A, 0.69. Under C8A C31G G35A stands 0.36. Turning to C8A C15A G29U U38C U43G, the self-cleavage worked out at 0. Take C8G C18U G21U: the self-cleavage is 0.02. Under C8A U9G A11C U38C stands 0.01; under C8A G22A G36A A41G, 0.44. As to C8A A24U A41G, the self-cleavage was 0.26.

As for C8G C15G G29C, the self-cleavage came out at 0.16. Under C8U A11C G19U U38C stands 0.01; under C8A C13A G19U U20C, 0.5; under C8G A39U A41U, 0.19. C8A C10A C15A U28C A41G: the self-cleavage stood at 0.04. The value for C8G A14G G27A was 0.21; that for C8A C10U U43A C45A was 0.05; that for C8A A25G G35C U38A A39U was 0.29. Regarding C8G G17U G27A U28A C46A, the self-cleavage was found to be 0.05. The value for C8A U9A C10G was 0.05; that for C8A U9C C45A was 0.08; that for C8G A24G G35A was 0.03. The value for C8U A11G U32C was 0.02; that for C8A C10U C31U was 0.08; that for C8A C13A G22A C31G was 0.31. Under C8A C18G C37U stands 0.07; under C8G C15U A26G U38G, 0.09. For C8U A11C G30C, the self-cleavage turned out to be 0. The value for C8U A11G G27A C31G C45A was 0.03; that for C8G A12U G30C was 0.06; that for C8A C18G G40U was 0.06. Under C8A G22A C37U C46G stands 0.1.
